Experimental data from article PMC6307818.
Where a chain is given by its changes, count along the chain named. These are yes or no findings as the source states them, for the method shown. Binding seen in cells or lysates may run through a third protein. Some results given as binding are weak or reduced against the parent protein; the word gives no strength. Tags and fused reporters may be left off the sequences shown.

By UniProt entry, the sequences of proteins in these tests, tags left out. Residues count along the entry.
UniProt P37198: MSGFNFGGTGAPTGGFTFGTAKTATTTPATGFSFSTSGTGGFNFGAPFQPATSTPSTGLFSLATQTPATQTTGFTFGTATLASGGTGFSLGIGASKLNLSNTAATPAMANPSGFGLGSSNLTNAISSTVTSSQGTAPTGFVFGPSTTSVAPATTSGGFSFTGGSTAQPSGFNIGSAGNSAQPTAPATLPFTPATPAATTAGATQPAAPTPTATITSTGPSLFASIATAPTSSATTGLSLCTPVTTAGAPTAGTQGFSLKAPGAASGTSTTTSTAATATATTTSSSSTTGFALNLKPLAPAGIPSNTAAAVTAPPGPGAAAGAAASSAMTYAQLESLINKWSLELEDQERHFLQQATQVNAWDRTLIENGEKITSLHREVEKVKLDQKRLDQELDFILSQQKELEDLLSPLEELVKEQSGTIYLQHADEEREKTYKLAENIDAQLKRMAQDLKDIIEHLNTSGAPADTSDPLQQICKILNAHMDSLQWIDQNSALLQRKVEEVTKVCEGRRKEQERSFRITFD
UniProt P52948, residues 1-880: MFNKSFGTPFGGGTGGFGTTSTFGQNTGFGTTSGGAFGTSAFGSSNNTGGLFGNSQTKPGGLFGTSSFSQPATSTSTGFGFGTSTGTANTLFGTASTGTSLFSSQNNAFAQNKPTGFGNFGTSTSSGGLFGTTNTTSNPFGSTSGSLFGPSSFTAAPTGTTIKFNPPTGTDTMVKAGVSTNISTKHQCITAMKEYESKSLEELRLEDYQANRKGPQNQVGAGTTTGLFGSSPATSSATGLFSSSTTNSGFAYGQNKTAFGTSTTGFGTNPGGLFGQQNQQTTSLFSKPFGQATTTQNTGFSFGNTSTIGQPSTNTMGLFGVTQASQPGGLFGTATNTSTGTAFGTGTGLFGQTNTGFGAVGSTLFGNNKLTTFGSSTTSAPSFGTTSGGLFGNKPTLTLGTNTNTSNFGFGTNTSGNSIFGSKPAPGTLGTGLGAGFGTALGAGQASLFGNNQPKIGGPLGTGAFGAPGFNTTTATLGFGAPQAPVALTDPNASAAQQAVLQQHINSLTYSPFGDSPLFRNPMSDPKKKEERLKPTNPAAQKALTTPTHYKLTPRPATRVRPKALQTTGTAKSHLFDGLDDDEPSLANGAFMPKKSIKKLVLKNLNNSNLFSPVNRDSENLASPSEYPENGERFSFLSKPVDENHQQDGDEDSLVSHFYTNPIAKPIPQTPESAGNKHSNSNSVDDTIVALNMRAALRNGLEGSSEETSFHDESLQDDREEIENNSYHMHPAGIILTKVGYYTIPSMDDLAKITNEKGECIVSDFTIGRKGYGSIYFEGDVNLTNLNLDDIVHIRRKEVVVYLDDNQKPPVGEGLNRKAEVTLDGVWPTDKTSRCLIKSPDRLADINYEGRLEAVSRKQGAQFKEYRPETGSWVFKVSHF

How the values were obtained:
Assay in all cases: co-IP; GFP-Trap_MA magnetic beads (ChromoTek) with 300 ug lysate of HeLa cells transiently expressing GFP or GFP-NUP88 variants (48 h); 1 h at 4 C; 10 mM Tris/HCl pH 7.5, 150 mM NaCl, 0.5 mM EDTA; washes with 150, 250 and 500 mM NaCl; Western blot for endogenous NUP214, NUP62, NUP98
[1] = molecular target: T1, GFP-NUP88 p.D434Y (human) (UniProt Q99567)
T1 sequence: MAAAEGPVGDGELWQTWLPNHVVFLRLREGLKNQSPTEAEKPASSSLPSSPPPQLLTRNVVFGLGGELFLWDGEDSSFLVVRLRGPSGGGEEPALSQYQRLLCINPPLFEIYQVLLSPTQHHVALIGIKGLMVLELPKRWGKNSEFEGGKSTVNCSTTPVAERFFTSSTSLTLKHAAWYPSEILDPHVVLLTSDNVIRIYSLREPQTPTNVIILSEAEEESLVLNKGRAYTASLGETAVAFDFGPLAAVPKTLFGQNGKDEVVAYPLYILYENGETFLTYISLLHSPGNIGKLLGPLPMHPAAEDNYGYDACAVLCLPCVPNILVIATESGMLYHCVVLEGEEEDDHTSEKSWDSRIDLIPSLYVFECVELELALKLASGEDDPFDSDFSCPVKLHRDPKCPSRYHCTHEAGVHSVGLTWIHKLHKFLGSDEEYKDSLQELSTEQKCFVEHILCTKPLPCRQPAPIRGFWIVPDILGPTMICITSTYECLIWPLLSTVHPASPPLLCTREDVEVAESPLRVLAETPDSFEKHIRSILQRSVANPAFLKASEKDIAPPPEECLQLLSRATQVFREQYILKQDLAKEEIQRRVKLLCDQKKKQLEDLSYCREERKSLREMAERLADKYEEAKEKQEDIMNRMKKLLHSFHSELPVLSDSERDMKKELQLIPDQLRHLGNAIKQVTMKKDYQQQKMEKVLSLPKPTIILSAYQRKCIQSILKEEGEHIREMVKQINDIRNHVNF

[2] = molecular target: T2, GFP-NUP88 p.E634del (human) (UniProt Q99567)
T2 sequence: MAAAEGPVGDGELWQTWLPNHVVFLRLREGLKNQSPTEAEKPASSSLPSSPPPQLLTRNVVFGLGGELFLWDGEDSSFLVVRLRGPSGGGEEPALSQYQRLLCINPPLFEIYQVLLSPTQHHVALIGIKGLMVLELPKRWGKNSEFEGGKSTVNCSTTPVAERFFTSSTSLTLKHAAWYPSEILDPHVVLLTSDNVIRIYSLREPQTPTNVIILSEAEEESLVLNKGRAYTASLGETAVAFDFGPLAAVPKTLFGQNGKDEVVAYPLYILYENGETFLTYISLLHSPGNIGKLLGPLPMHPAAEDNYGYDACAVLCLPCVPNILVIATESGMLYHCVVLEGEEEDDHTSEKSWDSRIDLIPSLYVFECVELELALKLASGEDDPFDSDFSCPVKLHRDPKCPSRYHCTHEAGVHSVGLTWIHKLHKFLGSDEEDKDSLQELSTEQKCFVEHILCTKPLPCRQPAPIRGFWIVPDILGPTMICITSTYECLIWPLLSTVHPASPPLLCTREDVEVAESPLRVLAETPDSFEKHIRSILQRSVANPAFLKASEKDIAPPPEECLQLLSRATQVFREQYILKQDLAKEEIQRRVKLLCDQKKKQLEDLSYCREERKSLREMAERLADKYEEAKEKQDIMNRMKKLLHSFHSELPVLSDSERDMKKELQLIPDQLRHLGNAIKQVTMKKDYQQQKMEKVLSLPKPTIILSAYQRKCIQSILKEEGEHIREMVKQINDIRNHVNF

[3] = molecular target: T3, GFP-NUP88 p.R509* (human) (UniProt Q99567)
T3 sequence: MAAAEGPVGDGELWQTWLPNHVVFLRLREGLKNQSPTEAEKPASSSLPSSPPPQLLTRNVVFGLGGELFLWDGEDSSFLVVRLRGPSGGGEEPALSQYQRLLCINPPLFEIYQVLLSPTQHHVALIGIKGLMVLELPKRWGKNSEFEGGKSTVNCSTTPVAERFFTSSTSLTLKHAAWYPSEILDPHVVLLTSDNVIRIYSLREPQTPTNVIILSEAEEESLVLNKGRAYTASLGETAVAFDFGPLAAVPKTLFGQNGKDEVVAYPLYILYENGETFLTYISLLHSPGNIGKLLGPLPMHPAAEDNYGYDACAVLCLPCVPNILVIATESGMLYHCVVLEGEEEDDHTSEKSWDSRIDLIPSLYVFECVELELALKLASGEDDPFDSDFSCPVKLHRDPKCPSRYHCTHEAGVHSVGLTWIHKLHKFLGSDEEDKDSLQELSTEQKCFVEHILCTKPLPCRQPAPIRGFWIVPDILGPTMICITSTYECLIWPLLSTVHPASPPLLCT

[4] = molecular target: T4, GFP-NUP88 wild-type (human) (UniProt Q99567)
T4 sequence: T1 sequence with Y434D

binding [1] | binding [2] | binding [3] | binding [4] | Substance
binds | no binding | no binding | binds | NUP62 (from UniProt P37198 1-522)
binds | binds | binds | binds | NUP98 (from UniProt P52948 1-880)
